Data published in the supplement of paper PMC9151546.
± gives the standard deviation of the averaged measurements. Most values come without repeats; read them as rough.

Key:
[1] = test system: CHO-K1; experiment: hypodiploid nuclei frequency (% of nucleated events); higher = more hypodiploid events (aneugenic)
Procedure: (§1)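 Flow-cytometric in vitro micronucleus assay (Litron MicroFlow) in CHO-K1 cells in 96-well plates, 19 concentrations (4.5-200 µM, n=1 per concentration). Without S9, cells were exposed for 24 h and sampled at 48 h. With Aroclor 1254-induced rat liver S9, cells were exposed for 3-4 h and sampled at 27-28 h. Read-outs are %MN and %hypodiploid nuclei relative to nucleated events, and relative survival as the nuclei-to-bead ratio versus the 1% DMSO vehicle control (x100).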

[2] = test system: CHO-K1; experiment: relative survival (nuclei to bead ratio vs DMSO control) (% of vehicle control); higher = more surviving cells
Procedure: as §1
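For hypodiploid nuclei frequency (% of nucleated events) in this document: hypodiploid nuclei gated on a flow cytometer with 488 nm excitation after SYTOX Green staining, cultures at 37 °C, positive controls vinblastine without S9 and cyclophosphamide with S9.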
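For relative survival (nuclei to bead ratio vs DMSO control) in this document: Lysed-cell nuclei stained with SYTOX Green and counted against counting beads by flow cytometry at 488 nm excitation, with vinblastine (no S9) and cyclophosphamide (plus S9) as positive controls.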

c1ccc2c(c1)oc1ccccc12 [Dibenzofuran]
Conditions	hypodiploid nuclei frequency, S9 metabolic activation: with S9, exposure time: 3-4 hours [%]	hypodiploid nuclei frequency, S9 metabolic activation: without S9, exposure time: 24 hours [%]	relative survival, S9 metabolic activation: with S9, exposure time: 3-4 hours	relative survival, S9 metabolic activation: without S9, exposure time: 24 hours
[1], concentration: 33.6 (µM)	0.17 ± 0.071	0.62	–	–
[1], concentration: 41.9 (µM)	0.26 ± 0.057	0.78	–	–
[1], concentration: 52.4 (µM)	0.19 ± 0.014	0.96	–	–
[1], concentration: 65.5 (µM)	0.23 ± 0.014	0.76	–	–
[1], concentration: 81.9 (µM)	0.27 ± 0.014	0.74	–	–
[1], concentration: 102 (µM)	0.44 ± 0.057	0.84	–	–
[1], concentration: 128 (µM)	0.31 ± 0.099	1.02	–	–
[1], concentration: 160 (µM)	0.27 ± 0.042	1.08	–	–
[1], concentration: 200 (µM)	0.48 ± 0.11	1.02	–	–
[2], concentration: 4.5 (µM)	–	–	101 ± 6.8	97.4
[2], concentration: 5.63 (µM)	–	–	108 ± 12	137
[2], concentration: 7.04 (µM)	–	–	114 ± 15	99.6
[2], concentration: 8.8 (µM)	–	–	111 ± 9.5	149
[2], concentration: 11 (µM)	–	–	110 ± 5.5	138
[2], concentration: 13.7 (µM)	–	–	117.8 ± 0.47	155
[2], concentration: 17.2 (µM)	–	–	114 ± 15	127
[2], concentration: 21.5 (µM)	–	–	103 ± 7.8	119
[2], concentration: 26.8 (µM)	–	–	122 ± 14	102
[2], concentration: 33.6 (µM)	–	–	94.8 ± 16	130
[2], concentration: 41.9 (µM)	–	–	99.09 ± 0.59	131
[2], concentration: 52.4 (µM)	–	–	106 ± 12	129
[2], concentration: 65.5 (µM)	–	–	99.27 ± 0.35	136
[2], concentration: 81.9 (µM)	–	–	83.4 ± 4.8	137
[2], concentration: 102 (µM)	–	–	106 ± 20	135
[2], concentration: 128 (µM)	–	–	101 ± 7.4	133
[2], concentration: 160 (µM)	–	–	86.7 ± 3.8	129
[2], concentration: 200 (µM)	–	–	87.9 ± 6.8	121
